The test system of this test is optimal Abl substrate peptide. In words: In vitro Abl kinase activity of purified Abl proteins on an optimal Abl substrate peptide. The settings on record: SH2-KD vs KD, due to an effect on vmax.

B1: SH2-KD: Abl polypeptide containing the SH2 and kinase domains, residues 138-534, HA-tagged (protein, UniProt P00519 138-534, looked up, fragment)
chain: EYLLSSGINGSFLVRESESSPGQRSISLRYEGRVYHYRINTASDGKLYVSSESRFNTLAELVHHHSTVADGLITTLHYPAPKRNKPTVYGVSPNYDKWEMERTDITMKHKLGGGQYGEVYEGVWKKYSLTVAVKTLKEDTMEVEEFLKEAAVMKEIKHPNLVQLLGVCTREPPFYIITEFMTYGNLLDYLRECNRQEVNAVVLLYMATQISSAMEYLEKKNFIHRDLAARNCLVGENHLVKVADFGLSRLMTGDTYTAHAGAKFPIKWTAPESLAYNKFSIKSDVWAFGVLLWEIATYGMSPYPGIDLSQVYELLEKDYRMERPEGCPEKVYELMRACWQWNPSDRPSFAEIHQAFETMFQESSISDEVEKELGKQGVRGAVSTLLQAPELPTKTRT
modifications: SH2-kinase domains HA tag
As to B1, the “activity relative to kinase domain alone” value is recorded as around 4 fold.

Source of the values: paper PMC2572732, “Structural Coupling of SH2-Kinase Domains Links Fes and Abl Substrate Recognition and Kinase Activation” (Cell, 2008).
